Laboratory results: patent publication US20250302875A1 (AVENCELL EUROPE, published 2025)

Experiments:
[1] = biological target: T1, IL13Rα2 on cells (recombinant K562-IL13Rα2 cell line, U251-MG cells, PC3 cells) (human, UniProt Q14627 27-380); experiment: flow cytometry cellular binding assay on recombinant K562-IL13Rα2 cells, two-step immunostaining (anti-His-tag-PE), absolute MFI against TM concentration, four-parameter fit
T1 construct: whole, on cells; not repeated for the recombinant cell line; also called Interleukin-13 receptor subunit alpha-2
T1 sequence (looked up): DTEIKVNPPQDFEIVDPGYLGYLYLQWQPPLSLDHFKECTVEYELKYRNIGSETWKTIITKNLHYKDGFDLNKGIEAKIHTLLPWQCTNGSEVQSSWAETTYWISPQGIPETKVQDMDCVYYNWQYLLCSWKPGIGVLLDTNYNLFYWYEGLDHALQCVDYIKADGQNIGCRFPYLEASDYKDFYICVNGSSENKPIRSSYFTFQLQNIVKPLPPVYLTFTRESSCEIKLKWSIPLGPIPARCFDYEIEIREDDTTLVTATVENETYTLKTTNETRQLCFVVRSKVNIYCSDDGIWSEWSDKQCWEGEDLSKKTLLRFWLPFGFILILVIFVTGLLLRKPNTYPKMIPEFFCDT
Description: (§1) Cellular binding of IL13-based targeting modules (TM) was tested on recombinant K562-IL13Rα2 cell line (FIG. 2A), recombinant K562-IL13Rα1 cell line (FIG. 2B) and U251-MG cells (FIG. 2C) (derived from a malignant glioblastoma tumor by explant technique). The affinity of TMs was analyzed by FACS in a two-step immunostaining. The TMs were titrated on an AML cell line with recombinant overexpression of IL13Rα2 or IL13Rα1 or U251-MG cells, respectively, and then detected by a mouse anti-His-tag antibody conjugated to phycoerythrin. A dose-response curve was obtained when the geometric mean fluorescence (MFI) was plotted against the TM concentration.
(§2) The data for the cellular binding of IL13-based TMs on the IL13Rα2-expressing AML cell line and U251-MG cells were fitted using a four-parameter model with a variable slope for sigmoidal curves.

[2] = biological target: T2, soluble recombinant IL13Rα2 ectodomain (human, UniProt Q14627 27-343); experiment: SPR, Biacore X100, 1:1 binding model
T2 construct: extracellular domain
T2 sequence (looked up): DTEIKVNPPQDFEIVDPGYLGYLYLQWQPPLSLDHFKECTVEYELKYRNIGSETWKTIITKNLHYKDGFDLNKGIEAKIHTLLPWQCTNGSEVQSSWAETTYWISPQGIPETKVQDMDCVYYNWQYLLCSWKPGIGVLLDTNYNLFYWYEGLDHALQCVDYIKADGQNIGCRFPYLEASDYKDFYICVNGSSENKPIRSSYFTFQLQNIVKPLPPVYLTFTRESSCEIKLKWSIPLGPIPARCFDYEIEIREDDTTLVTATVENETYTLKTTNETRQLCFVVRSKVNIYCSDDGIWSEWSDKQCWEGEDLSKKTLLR
Description: Data obtained by surface plasmon resonance were fitted with a “1:1 binding” model using the Biacore X100 Evaluation Software (V2.0.1). The following parameters were calculated from this model: association rate (kₐ), dissociation rate (kd) and the dissociation constant at equilibrium (KD).

[3] = biological target: T1, IL13Rα2 on cells (recombinant …); experiment: flow cytometry cellular binding assay on U251-MG cells, two-step immunostaining (anti-His-tag-PE), absolute MFI against TM concentration, four-parameter fit
Description: as §1, §2

[4] = biological target: T3, IL13Rα1 on recombinant K562-IL13Rα1 cell line (UniProt P78552 22-427); experiment: cell-based or functional assay
T3 sequence (looked up): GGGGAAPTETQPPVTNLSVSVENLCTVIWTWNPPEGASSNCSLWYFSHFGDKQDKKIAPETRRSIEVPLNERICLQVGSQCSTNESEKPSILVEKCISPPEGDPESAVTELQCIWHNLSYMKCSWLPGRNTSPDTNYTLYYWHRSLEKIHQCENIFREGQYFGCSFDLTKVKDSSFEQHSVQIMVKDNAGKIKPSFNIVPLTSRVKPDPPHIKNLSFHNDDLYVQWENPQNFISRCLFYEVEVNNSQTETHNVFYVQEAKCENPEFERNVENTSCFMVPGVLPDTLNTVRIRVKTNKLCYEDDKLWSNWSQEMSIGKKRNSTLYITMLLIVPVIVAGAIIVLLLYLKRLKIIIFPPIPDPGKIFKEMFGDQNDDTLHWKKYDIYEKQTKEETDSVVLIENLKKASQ

EC50 [1]: 1.93 nM
Kd [2]: 14 nM
koff [2]: 0.00074 s⁻¹
kon [2]: 54000 M⁻¹ s⁻¹
EC50 [3]: 0.977 nM
EC50 of switchable CAR T cell-dependent lysis of K562-IL13Rα1 [4]: 0.516 nM
B1: targeting module comprising IL13wt (ligand, not shown: small tags and cut ends)
chain (part 1 of 2): not shown
chain (part 2 of 2): KPLPEVTDEYHHHHHHHH
notes: only that the His tag is at the C-terminus; also called TM based on IL13 wt
